Measurements as given in publication PMC5062570 (Nature Communications, 2016).

Tests used:
[1] = molecular target: PF-7802-labelled proteins in ARPE-19 cells (Homo sapiens, UniProt Q15019); conditions: SEPT2 Septin-2 (Q15019)
[2] = molecular target: PF-7802-labelled proteins in ARPE-19 cells (Homo sapiens, UniProt Q16798); conditions: protein ME3 NADP-dependent malic enzyme, mitochondrial (Q16798); replicates in separate columns
[3] = molecular target: PF-7802-labelled proteins in ARPE-19 cells (Homo sapiens, UniProt Q13492); conditions: protein PICALM Phosphatidylinositol-binding clathrin assembly protein (Q13492); replicates in separate columns
Sequence of UniProt Q13492 (Q13492 whole entry): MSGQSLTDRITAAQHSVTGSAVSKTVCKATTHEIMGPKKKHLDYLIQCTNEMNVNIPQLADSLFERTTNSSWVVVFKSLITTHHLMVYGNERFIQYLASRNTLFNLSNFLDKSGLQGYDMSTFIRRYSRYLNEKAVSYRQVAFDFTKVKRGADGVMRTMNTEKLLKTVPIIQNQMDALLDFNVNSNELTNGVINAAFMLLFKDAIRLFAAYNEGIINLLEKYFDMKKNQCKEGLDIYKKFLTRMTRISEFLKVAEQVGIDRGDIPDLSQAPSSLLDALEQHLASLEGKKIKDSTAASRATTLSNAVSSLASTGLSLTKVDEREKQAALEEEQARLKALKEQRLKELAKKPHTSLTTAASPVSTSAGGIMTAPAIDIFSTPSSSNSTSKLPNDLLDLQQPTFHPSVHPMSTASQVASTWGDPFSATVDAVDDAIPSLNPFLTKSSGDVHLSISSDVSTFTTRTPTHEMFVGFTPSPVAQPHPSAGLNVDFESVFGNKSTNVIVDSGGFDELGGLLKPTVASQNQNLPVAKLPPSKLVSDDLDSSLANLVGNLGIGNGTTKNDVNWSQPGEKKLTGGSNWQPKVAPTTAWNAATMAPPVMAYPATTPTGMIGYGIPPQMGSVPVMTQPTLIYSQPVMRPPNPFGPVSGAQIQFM

[4] = molecular target: PF-7802-labelled proteins in ARPE-19 cells (Homo sapiens, UniProt P32969); conditions: protein RPL9P9 60S ribosomal protein L9, P32969
[5] = molecular target: PF-7802-labelled proteins in ARPE-19 cells (Homo sapiens, UniProt P31946); conditions: protein YWHAB 14-3-3 protein beta/alpha (P31946); replicate R1
Sequence of UniProt P31946 (P31946 whole entry): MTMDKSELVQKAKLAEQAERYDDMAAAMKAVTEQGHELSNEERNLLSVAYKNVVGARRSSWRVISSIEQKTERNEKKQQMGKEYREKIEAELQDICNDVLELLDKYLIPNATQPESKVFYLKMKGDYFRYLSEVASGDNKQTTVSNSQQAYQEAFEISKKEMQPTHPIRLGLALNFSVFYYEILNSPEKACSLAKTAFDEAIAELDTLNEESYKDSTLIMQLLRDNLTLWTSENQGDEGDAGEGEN

[6] = molecular target: PF-7802-labelled proteins in ARPE-19 cells (Homo sapiens, UniProt P05386); conditions: protein RPLP1 60S acidic ribosomal protein P1, P05386
Sequence of UniProt P05386 (P05386 whole entry): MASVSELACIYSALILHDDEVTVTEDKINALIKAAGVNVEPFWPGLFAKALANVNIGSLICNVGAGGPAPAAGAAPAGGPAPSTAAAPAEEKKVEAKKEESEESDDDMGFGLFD

[7] = molecular target: PF-7802-labelled proteins in ARPE-19 cells (Homo sapiens, UniProt Q04837); conditions: SSBP1 Single-stranded DNA-binding protein, mitochondrial (Q04837)
[8] = molecular target: PF-7802-labelled proteins in ARPE-19 cells (Homo sapiens, UniProt Q9H0U4); conditions: protein RAB1B Ras-related protein Rab-1B, Q9H0U4
Sequence of UniProt Q9H0U4 (Q9H0U4 whole entry): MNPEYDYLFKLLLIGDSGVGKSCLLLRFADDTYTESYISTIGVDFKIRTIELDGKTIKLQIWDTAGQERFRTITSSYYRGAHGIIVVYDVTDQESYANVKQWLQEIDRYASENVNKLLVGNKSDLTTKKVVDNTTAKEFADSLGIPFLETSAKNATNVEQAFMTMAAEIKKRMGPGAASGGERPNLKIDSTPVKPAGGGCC

[9] = molecular target: PF-7802-labelled proteins in ARPE-19 cells (Homo sapiens, UniProt P09936); conditions: UCHL1 Ubiquitin carboxyl-terminal hydrolase isozyme L1 (P09936)
Sequence of UniProt P09936 (P09936 whole entry): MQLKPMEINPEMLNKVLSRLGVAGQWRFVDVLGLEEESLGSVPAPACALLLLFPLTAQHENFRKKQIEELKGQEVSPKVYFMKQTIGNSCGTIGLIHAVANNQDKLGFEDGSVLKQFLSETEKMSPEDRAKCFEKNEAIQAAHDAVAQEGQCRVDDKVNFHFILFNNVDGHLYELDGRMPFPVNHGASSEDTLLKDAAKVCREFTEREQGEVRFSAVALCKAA

[10] = molecular target: PF-7802-labelled proteins in ARPE-19 cells (Homo sapiens, UniProt P07602); conditions: protein PSAP Proactivator polypeptide, P07602
[11] = molecular target: PF-7802-labelled proteins in ARPE-19 cells (Homo sapiens, UniProt Q5QNW6)
[12] = molecular target: PF-7802-labelled proteins in ARPE-19 cells (Homo sapiens, UniProt Q99536); conditions: VAT1 Synaptic vesicle membrane protein VAT-1 homolog (Q99536)
Sequence of UniProt Q99536 (Q99536 whole entry): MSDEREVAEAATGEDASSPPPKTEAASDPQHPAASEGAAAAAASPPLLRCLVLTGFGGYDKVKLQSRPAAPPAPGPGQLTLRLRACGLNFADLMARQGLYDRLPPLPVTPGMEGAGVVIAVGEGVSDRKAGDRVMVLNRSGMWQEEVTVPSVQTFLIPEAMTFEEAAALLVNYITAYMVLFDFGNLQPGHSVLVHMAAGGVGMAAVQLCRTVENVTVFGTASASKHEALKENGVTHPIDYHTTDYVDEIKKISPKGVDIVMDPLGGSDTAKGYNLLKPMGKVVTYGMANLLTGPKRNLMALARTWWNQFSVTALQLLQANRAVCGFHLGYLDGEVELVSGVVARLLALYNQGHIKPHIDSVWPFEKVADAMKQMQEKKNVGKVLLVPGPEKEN

[13] = molecular target: PF-7802-labelled proteins in ARPE-19 cells (Homo sapiens, UniProt P11717); conditions: protein IGF2R Cation-independent mannose-6-phosphate receptor (P11717); one column per replicate
[14] = molecular target: PF-7802-labelled proteins in ARPE-19 cells (Homo sapiens, UniProt P23368); conditions: protein ME2 NAD-dependent malic enzyme, mitochondrial (P23368); replicates in separate columns
[15] = molecular target: PF-7802-labelled proteins in ARPE-19 cells (Homo sapiens, UniProt P05556)
[16] = molecular target: PF-7802-labelled proteins in ARPE-19 cells (Homo sapiens, UniProt O00469)
[17] = molecular target: PF-7802-labelled proteins in ARPE-19 cells (Homo sapiens, UniProt P23284)
[18] = molecular target: PF-7802-labelled proteins in ARPE-19 cells (Homo sapiens, UniProt P22314); conditions: UBA1 Ubiquitin-like modifier-activating enzyme 1 (P22314)
Sequence of UniProt P22314 (P22314 whole entry): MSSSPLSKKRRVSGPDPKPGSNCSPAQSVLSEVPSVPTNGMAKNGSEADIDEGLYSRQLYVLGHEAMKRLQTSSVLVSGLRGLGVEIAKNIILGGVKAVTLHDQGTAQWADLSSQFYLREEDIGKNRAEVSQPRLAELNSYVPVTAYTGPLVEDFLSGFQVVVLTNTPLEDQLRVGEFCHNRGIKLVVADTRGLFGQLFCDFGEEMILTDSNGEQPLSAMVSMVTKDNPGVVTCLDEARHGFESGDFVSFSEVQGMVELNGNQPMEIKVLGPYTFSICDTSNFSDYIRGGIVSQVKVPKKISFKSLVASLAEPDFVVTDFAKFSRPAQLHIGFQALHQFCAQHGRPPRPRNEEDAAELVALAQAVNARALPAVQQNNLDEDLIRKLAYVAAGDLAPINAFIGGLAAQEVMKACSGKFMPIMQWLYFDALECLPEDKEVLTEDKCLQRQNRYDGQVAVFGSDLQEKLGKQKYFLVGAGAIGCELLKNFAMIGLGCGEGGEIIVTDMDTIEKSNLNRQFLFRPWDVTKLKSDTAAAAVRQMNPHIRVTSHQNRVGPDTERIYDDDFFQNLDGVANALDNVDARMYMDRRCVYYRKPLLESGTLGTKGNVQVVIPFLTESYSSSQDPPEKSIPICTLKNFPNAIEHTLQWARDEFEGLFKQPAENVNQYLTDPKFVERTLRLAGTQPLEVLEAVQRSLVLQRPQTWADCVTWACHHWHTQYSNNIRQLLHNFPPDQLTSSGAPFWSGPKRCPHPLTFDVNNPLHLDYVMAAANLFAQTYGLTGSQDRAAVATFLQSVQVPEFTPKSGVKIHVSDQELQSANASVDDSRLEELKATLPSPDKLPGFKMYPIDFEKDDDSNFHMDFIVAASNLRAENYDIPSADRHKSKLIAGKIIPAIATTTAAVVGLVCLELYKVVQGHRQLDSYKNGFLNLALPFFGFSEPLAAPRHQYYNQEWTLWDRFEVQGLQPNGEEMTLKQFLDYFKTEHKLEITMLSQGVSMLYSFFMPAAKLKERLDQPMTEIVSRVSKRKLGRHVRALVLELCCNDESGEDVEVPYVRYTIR

[19] = molecular target: PF-7802-labelled proteins in ARPE-19 cells (Homo sapiens, UniProt P62937); conditions: protein PPIA Peptidyl-prolyl cis-trans isomerase A, P62937
Sequence of UniProt P62937 (P62937 whole entry): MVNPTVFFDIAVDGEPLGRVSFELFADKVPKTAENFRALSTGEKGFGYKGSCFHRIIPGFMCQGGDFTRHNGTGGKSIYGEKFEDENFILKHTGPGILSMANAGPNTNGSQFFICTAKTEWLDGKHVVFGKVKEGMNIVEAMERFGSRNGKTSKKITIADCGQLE

[20] = molecular target: PF-7802-labelled proteins in ARPE-19 cells (Homo sapiens, UniProt Q9Y639); conditions: protein NPTN Neuroplastin (Q9Y639); replicates in separate columns
[21] = molecular target: PF-7802-labelled proteins in ARPE-19 cells (Homo sapiens, UniProt P26373); conditions: protein RPL13 60S ribosomal protein L13, P26373
[22] = system: PF-7802-labelled proteins in ARPE-19 cells

Sequence of UniProt Q16798 (Q16798 whole entry): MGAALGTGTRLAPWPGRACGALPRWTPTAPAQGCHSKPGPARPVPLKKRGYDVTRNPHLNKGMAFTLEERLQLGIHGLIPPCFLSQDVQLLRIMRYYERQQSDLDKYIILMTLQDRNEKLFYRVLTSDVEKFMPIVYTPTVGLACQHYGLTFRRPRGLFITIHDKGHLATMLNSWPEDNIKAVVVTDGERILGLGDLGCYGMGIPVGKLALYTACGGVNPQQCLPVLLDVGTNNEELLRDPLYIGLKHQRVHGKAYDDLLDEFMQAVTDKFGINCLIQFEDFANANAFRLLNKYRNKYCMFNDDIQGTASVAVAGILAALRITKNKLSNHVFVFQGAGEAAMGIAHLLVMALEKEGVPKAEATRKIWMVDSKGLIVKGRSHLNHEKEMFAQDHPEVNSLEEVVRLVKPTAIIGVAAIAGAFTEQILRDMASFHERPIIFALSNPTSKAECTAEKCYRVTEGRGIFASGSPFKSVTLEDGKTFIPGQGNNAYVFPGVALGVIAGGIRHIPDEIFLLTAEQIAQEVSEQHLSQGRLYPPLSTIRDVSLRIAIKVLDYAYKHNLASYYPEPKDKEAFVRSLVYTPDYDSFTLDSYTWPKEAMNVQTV
Sequence of UniProt Q15019 (Q15019 whole entry): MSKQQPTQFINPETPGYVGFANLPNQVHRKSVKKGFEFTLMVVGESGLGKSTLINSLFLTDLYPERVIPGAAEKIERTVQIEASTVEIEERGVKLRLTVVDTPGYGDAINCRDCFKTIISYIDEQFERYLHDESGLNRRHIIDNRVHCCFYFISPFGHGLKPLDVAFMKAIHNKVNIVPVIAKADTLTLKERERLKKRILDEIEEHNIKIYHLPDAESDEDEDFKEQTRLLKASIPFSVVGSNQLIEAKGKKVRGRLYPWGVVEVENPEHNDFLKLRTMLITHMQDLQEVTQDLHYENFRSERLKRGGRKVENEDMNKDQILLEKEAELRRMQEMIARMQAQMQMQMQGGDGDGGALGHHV

## Cc1cc([C@H]2C[C@H]3[C@@H](C)SC(N)=N[C@@]3(c3ccc(F)cc3F)CO2)on1 [PF-9283]
[1]
  Median SILAC Ratio (Heavy/Light): 1.395
[2]
  Median SILAC Ratio (Heavy/Light): 0.9366
[3]
  Median SILAC Ratio (Heavy/Light): 1.395 and 0.621
[4]
  Median SILAC Ratio (Heavy/Light): 1.099 and 1.768
[5]
  Median SILAC Ratio (Heavy/Light): 1.462
[6]
  Median SILAC Ratio (Heavy/Light): 1.074
[7]
  Median SILAC Ratio (Heavy/Light): 0.8749
[8]
  Median SILAC Ratio (Heavy/Light): 1.537 and 0.9161
[9]
  Median SILAC Ratio (Heavy/Light): 1.087
[10]
  Median SILAC Ratio (Heavy/Light): 0.7977

## CNC1CCN(C(=O)C[C@@H](Cc2ccccc2)C(=O)N[C@@H](CSC)C(=O)N[C@@H](CC2CCCCC2)[C@@H](O)C(=O)OC(C)C)CC1 [CP-108671, reference compound]
[11]; Q5QNW6 HIST2H2BF Histone H2B type 2-F
  SILAC ratio (DMSO/CP-108671): 0.96
[11]; protein HIST2H2BF Histone H2B type 2-F (Q5QNW6), one column per replicate
  Median SILAC Ratio (Heavy/Light): 1.044 and 1.132
[12]
  Median SILAC Ratio (Heavy/Light): 1.26
[13]
  Median SILAC Ratio (Heavy/Light): 0.7419
[14]
  Median SILAC Ratio (Heavy/Light): 2.744
[15]; P05556 ITGB1 Integrin beta-1
  SILAC ratio (DMSO/CP-108671): 0.89
[15]; protein ITGB1 Integrin beta-1 (P05556), one column per replicate
  Median SILAC Ratio (Heavy/Light): 1.128
[16]; O00469 PLOD2 Procollagen-lysine,2-oxoglutarate 5-dioxygenase 2
  SILAC ratio (DMSO/CP-108671): 0.89
[16]; protein PLOD2 Procollagen-lysine,2-oxoglutarate 5-dioxygenase 2 (O00469), replicates in separate columns
  Median SILAC Ratio (Heavy/Light): 1.122
[17]; P23284 PPIB Peptidyl-prolyl cis-trans isomerase B
  SILAC ratio (DMSO/CP-108671): 0.87
[17]; protein PPIB Peptidyl-prolyl cis-trans isomerase B, P23284
  Median SILAC Ratio (Heavy/Light): 1.163 and 0.8743
[18]
  Median SILAC Ratio (Heavy/Light): 2.31
[19]
  Median SILAC Ratio (Heavy/Light): 1.663
[20]
  Median SILAC Ratio (Heavy/Light): 1.109
[21]
  Median SILAC Ratio (Heavy/Light): 1.51
[22]; P10319 HLA-B HLA class I histocompatibility antigen, B-58 alpha chain
  SILAC ratio (DMSO/CP-108671): 0.79
[22]; P18464 HLA-B HLA class I histocompatibility antigen, B-51 alpha chain
  SILAC ratio (DMSO/CP-108671): 0.79
[22]; P18465 HLA-B HLA class I histocompatibility antigen, B-57 alpha chain
  SILAC ratio (DMSO/CP-108671): 0.79
[22]; P30484 HLA-B HLA class I histocompatibility antigen, B-46 alpha chain
  SILAC ratio (DMSO/CP-108671): 0.79
[22]; P30492 HLA-B HLA class I histocompatibility antigen, B-54 alpha chain
  SILAC ratio (DMSO/CP-108671): 0.79
[22]; P30504 HLA-C HLA class I histocompatibility antigen, Cw-4 alpha chain
  SILAC ratio (DMSO/CP-108671): 0.79
[22]; P30510 HLA-C HLA class I histocompatibility antigen, Cw-14 alpha chain
  SILAC ratio (DMSO/CP-108671): 0.79
[22]; P30685 HLA-B HLA class I histocompatibility antigen, B-35 alpha chain
  SILAC ratio (DMSO/CP-108671): 0.79
[22]; UBBP4 Protein UBBP4 (J3QRK5)
  Median SILAC Ratio (Heavy/Light): 1.414 and 1.581
[22]; Uncharacterized protein (D6R9H1)
  Median SILAC Ratio (Heavy/Light): 1.392
[22]; Uncharacterized protein (J3QS99)
  Median SILAC Ratio (Heavy/Light): 1.406
[22]; protein HLA-A HLA class I histocompatibility antigen, A-2 alpha chain (P01892), one column per replicate
  Median SILAC Ratio (Heavy/Light): 1.404
[22]; protein HLA-B HLA class I histocompatibility antigen, B-8 alpha chain (P30460), one column per replicate
  Median SILAC Ratio (Heavy/Light): 1.249
[22]; protein HLA-B HLA class I histocompatibility antigen, B-14 alpha chain (P30462), one column per replicate
  Median SILAC Ratio (Heavy/Light): 1.249
[22]; protein HLA-B HLA class I histocompatibility antigen, B-35 alpha chain (P30685), one column per replicate
  Median SILAC Ratio (Heavy/Light): 1.264
[22]; protein HLA-B HLA class I histocompatibility antigen, B-37 alpha chain (P18463), one column per replicate
  Median SILAC Ratio (Heavy/Light): 1.249
[22]; protein HLA-B HLA class I histocompatibility antigen, B-38 alpha chain (Q95365), one column per replicate
  Median SILAC Ratio (Heavy/Light): 1.249
[22]; protein HLA-B HLA class I histocompatibility antigen, B-46 alpha chain (P30484), one column per replicate
  Median SILAC Ratio (Heavy/Light): 1.264
[22]; protein HLA-B HLA class I histocompatibility antigen, B-51 alpha chain (P18464), one column per replicate
  Median SILAC Ratio (Heavy/Light): 1.264
[22]; protein HLA-B HLA class I histocompatibility antigen, B-54 alpha chain (P30492), one column per replicate
  Median SILAC Ratio (Heavy/Light): 1.264
[22]; protein HLA-B HLA class I histocompatibility antigen, B-57 alpha chain (P18465), one column per replicate
  Median SILAC Ratio (Heavy/Light): 1.264
[22]; protein HLA-B HLA class I histocompatibility antigen, B-58 alpha chain (P10319), one column per replicate
  Median SILAC Ratio (Heavy/Light): 1.264
[22]; protein HLA-B HLA class I histocompatibility antigen, B-59 alpha chain (Q29940), one column per replicate
  Median SILAC Ratio (Heavy/Light): 1.264
[22]; protein HLA-B HLA class I histocompatibility antigen, B-67 alpha chain (Q29836), one column per replicate
  Median SILAC Ratio (Heavy/Light): 1.249
[22]; protein HLA-B HLA class I histocompatibility antigen, B-82 alpha chain (Q29718), one column per replicate
  Median SILAC Ratio (Heavy/Light): 1.249
[22]; protein HLA-C HLA class I histocompatibility antigen, Cw-4 alpha chain (P30504), one column per replicate
  Median SILAC Ratio (Heavy/Light): 1.264
[22]; protein HLA-C HLA class I histocompatibility antigen, Cw-14 alpha chain (F8VZB9), one column per replicate
  Median SILAC Ratio (Heavy/Light): 1.094
[22]; protein HLA-C HLA class I histocompatibility antigen, Cw-14 alpha chain (P30510), one column per replicate
  Median SILAC Ratio (Heavy/Light): 1.264
[22]; protein HLA-C HLA class I histocompatibility antigen, Cw-17 alpha chain (Q95604), one column per replicate
  Median SILAC Ratio (Heavy/Light): 1.404
[22]; protein HLA-C HLA class I histocompatibility antigen, Cw-18 alpha chain (Q29865), one column per replicate
  Median SILAC Ratio (Heavy/Light): 1.179
[22]; protein LOC440131 Similar to bA90M5.1 (Novel protein) (Q5TAE0), replicates in separate columns
  Median SILAC Ratio (Heavy/Light): 0.5915

“And” between values parts separate entries of the source, which are not always exact repeats. Equal entries are not always repeated. Where two headings read alike, the source gives them in different places.
